The results in this text go back to PubChem BioAssay AID1346428 (National Center for Advancing Translational Sciences (NCATS), 2018).

Each structure is given as a SMILES string. Where “and” joins values, the source holds several entries; their conditions need not be identical. Equal values may be shown once. Screen size: about 48,000 compounds; about 1,200 (2.5%) were called active. Not shown: some 2% with an inconclusive outcome.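 How the source made its calls: active means activation of at least 60% and not above a set upper limit (about 1 call in 100 departs from these limits); inconclusive means activation of 40% to 60%, or above that upper limit; inactive means activation under 40%.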 This is one part of the list.

Sequence of UniProt O75388 (O75388 whole entry, looked up): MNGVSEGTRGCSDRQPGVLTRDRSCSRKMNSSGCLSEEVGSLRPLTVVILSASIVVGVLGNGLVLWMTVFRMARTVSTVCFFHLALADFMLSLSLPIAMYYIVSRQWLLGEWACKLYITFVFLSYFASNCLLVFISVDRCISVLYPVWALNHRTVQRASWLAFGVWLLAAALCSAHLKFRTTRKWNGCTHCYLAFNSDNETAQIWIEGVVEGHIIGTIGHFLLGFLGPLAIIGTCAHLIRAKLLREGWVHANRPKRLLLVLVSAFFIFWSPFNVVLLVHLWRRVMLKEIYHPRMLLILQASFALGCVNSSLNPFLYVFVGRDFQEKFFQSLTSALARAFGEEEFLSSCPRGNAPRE

The target of this assay is Probable G-protein coupled receptor 32 (Homo sapiens) (UniProt O75388). Description: qHTS for Agonists of Human Resolvin D1 Receptor DRV1. Further: 0% is about no effect. Particulars: CHO-K1 GPR32 beta-arrestin PathHunter luminescence, 90 min; at 76.9 µM; active compounds read high; zero percent set by DMSO-only wells. An outline of the steps:
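Luminescent readout of beta-Gal complementation quantifies ligand-induced beta-arrestin association with GPR32 in CHO-K1 cells; 90 min compound incubation at 37 °C, detection 1 h at room temperature.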
As for `Cc1csc2nc(COc3ccc(NC(=O)COc4ccc(F)cc4)cc3)cc(=O)n12`, the activation is inactive: 18.4%.
In the case of `CC(C)c1ccc(CNc2nc(-c3ccco3)nn2S(=O)(=O)c2ccccc2)cc1` it was inactive: -29.6%; in that of `CCOc1ccccc1CNC(=O)c1nn(C)c2c1CS(=O)(=O)c1ccccc1-2`, inactive: -15.3%; in that of `Cc1cc2c(cc1NC(=O)c1ccc(C(C)(C)C)cc1)n(C)c(=O)c(=O)n2C`, inactive: 33.4%.
`COc1ccc(NC(=O)c2sc3nc[nH]c(=O)c3c2C)cc1`: the activation was inactive: -14.1%.
In the case of `Cc1ccc(-c2cc(C(=O)Oc3ccccc3)c3cccc(C)c3n2)cc1`, the activation is inactive: -15.2%.
`COC(=O)c1cc(S(=O)(=O)N2CCN(c3ccc(C)cc3C)CC2)cn1C`: the activation was inactive: -6.94%.
For the compound `Cc1sc(-c2cc3ccccc3oc2=O)nc1-c1ccc(Cl)cc1`, the activation was inactive: 20.4%.
`O=C(CN1C(=O)COc2ccc(S(=O)(=O)N3CCCC3)cc21)N1CCN(c2ccccc2F)CC1`: the activation is inactive: -2.26%.
As for `Cc1ccccc1-c1nc(CS(=O)CC(=O)NCCc2ccc(Cl)cc2)c(C)o1` (stereo not drawn), the figure is inactive: -11.9%; as for `CC(C)Oc1ccc(CNC(=O)C2COc3ccccc3C2)cc1` (stereo not drawn), inactive: -8.58%.
Consider `O=C1CC(c2ccccc2)Cc2[nH]c(=O)c(-c3nc(-c4ccc(F)cc4)cs3)cc21` (stereo not drawn), for which the activation was inactive: -77.4%.
For `COC(=O)c1ccccc1NC(=O)Nc1cccc(OCc2cc(=O)n3cccc(C)c3n2)c1`, the activation is inactive: -7.5%.
In the case of `CCCCCCOc1ccc(-c2nc3ccc(Br)cc3c(=O)o2)cc1` it was inactive: -0.102%; in that of `COc1ccc(-c2noc(-c3ccc(N4CCCCC4)c([N+](=O)[O-])c3)n2)cc1`, inactive: 5.49%; in that of `CCOC(=O)c1cnc2ccc(OCC)cc2c1N1CCN(c2cccc(Cl)c2)CC1`, inactive: -1.9%.
On to `CCOc1ccc(C2c3c(oc4ccc(C)cc4c3=O)C(=O)N2c2nc(C)c(C)s2)cc1OC` (stereo not drawn), for which the activation is inactive: -3.62%.
In the case of `O=C1CN(C(=O)C2CCCCC2)C(c2ccccc2)c2cc(F)ccc2N1` (stereo not drawn), the activation is inactive: -5.34%.
Consider `COc1cc(Cl)c(NS(=O)(=O)c2ccc3[nH]c(=O)ccc3c2)c(OC)c1`, for which the activation is inactive: 0.933%.
With `CCC1CCCCN1C(=O)Cn1c(=O)n(-c2ccccc2C(F)(F)F)c(=O)c2c(C)c(C(=O)N(C)C)sc21` (stereo not drawn), the activation was inactive: -4.54%.
As for `CCCCC(=O)NC1(C(F)(F)F)C(=O)Nc2c1c(=O)[nH]c(=O)n2-c1ccc(F)cc1` (stereo not drawn), the figure is inactive: -2.29%; as for `Cc1ccc(C)c(NC(=O)C2CCCN(S(=O)(=O)c3cccc4nsnc34)C2)c1` (stereo not drawn), inactive: 15.8%.
As for `CCOc1ccc(NC(=O)C(CC)n2nc(-c3ccc(C)c(C)c3)ccc2=O)cc1` (stereo not drawn), the figure is inactive: 0.369%.
In the case of `CCOc1ccc(OCC)c(NC(=O)CN(c2ccc(C)cc2)S(=O)(=O)c2c(C)n[nH]c2C)c1`, the activation was inactive: 38.8%.
In the case of `Cc1ccc(NC(=O)Cn2c(=O)n(Cc3nc(-c4ccccc4)no3)c(=O)c3cc4c(cc32)OCO4)cc1C` it was inactive: -3.13%; in that of `COc1ccccc1N1CCN(C(c2ccccc2)c2nnc(-c3ccccc3Cl)o2)CC1` (stereo not drawn), inactive: -40.6%; in that of `CCCNC(=O)c1cc2n(n1)CCCN(Cc1ccc(F)cc1)C2=O`, inactive: 7.27%.
`O=C(c1ccc2c(c1)N(Cc1ccccc1F)C(=O)c1ccccc1S2(=O)=O)N1CCCCCC1`: the activation is inactive: -28.1%.
As to `CC(C)=CCOc1ccc(/C=C/C(=O)c2ccc(OCC=C(C)C)cc2OCC(=O)O)cc1`, the activation was inactive: 30.3%.
On to `C[C@@H]1CN(CCCn2c3ccccc3c3ccccc32)C[C@H](C)N1`, for which the activation is inactive: 32.6%.
`COc1cccc(C(=O)c2sc(Nc3ccc(C)cc3C)c(S(=O)(=O)c3ccccc3)c2N)c1`: the activation was inactive: -23.9%.
Take `CCOc1ccc(CCNC(=O)c2ccc(Cn3c(=O)c4cccn4c4cccnc43)cc2)cc1`: the activation is inactive: -18%.
For `COc1ccc(-c2csc3ncnc(Nc4ccc(OC)c(OC)c4)c23)cc1`, the activation was inactive: 41.1%.
On to `Cc1cc(N2CCCCC2)nc2ccc(NC(=O)CCC(=O)N3CCN(c4cccc(Cl)c4)CC3)cc12`, for which the activation is inactive: -9.97%.
For the compound `CCN(C(=O)Cn1c(SCc2ccccc2F)nc2cccnc21)c1ccccc1`, the activation is inactive: -16.9%.
As for `CCOC(=O)c1sc(N2C(=O)c3oc4ccc(F)cc4c(=O)c3C2c2cccc(OC)c2)nc1C` (stereo not drawn), the figure is inactive: -4.24%.
Take `O=C(C1COc2ccccc2O1)N(Cc1cccnc1)c1nc2ccc(F)cc2s1` (stereo not drawn): the activation was inactive: -8.93%.
Take `O=C(OCc1ccccc1)c1ccc(-c2nnn(Cc3ccccc3F)n2)cc1`: the activation is inactive: -0.987%.
For the compound `O=C(CSCc1nc2cccnc2n1C1CCCCC1)NCc1cccc(Br)c1`, the activation is inactive: -22.4%.
`CCOc1ccc(CCNC(=O)c2ccc3[nH]c(C)c(C)c3c2)cc1`: the activation is active: 72.4%.
In the case of `Cc1ccc2scc(N3CCN(c4ccccc4)CC3)c(=O)c2c1` it was inactive: -49.5%.
In the case of `COc1ccc(CCNC(=O)c2cc3c(=O)n(C)c4cc(Cl)ccc4c3s2)cc1OC`, the activation is inactive: -9.66%.
As for `COc1ccc(-c2[nH]c(-c3ccccc3)nc2SCC(=O)NC2CCCC2)cc1`, the figure is inactive: -24.6%.
Regarding `CCC1CN(C(=O)NCc2cccc(OC)c2)c2ccccc2O1` (stereo not drawn), the activation was inactive: -24.4%.
As for `COc1cccc(NC(=O)C(=O)NCCc2sc(-c3cccc(C)c3)nc2C)c1`, the figure is inactive: 36.1%; as for `O=S1(=O)c2ccccc2N(Cc2ccccc2Cl)c2ccccc21`, inactive: -7.9%; as for `CCN1C(=O)c2ccccc2Sc2ccc(NC(=O)Nc3ccc(Br)c(C)c3)cc21`, inactive: 9.29%.
In the case of `COc1ccc(-c2cc(NCc3ccc(C)cc3)n3cnnc3n2)cc1` it was inactive: 6.98%.
For `Cc1ccc(-c2ccc(=O)n(CC(=O)NC(C)c3ccccc3)n2)cc1` (stereo not drawn), the activation is inactive: 7.11%.
In the case of `CC(C(=O)O)c1cccc(Oc2ccccc2)c1` (stereo not drawn), the activation was inactive: -8.06%.
In the case of `Cc1ccccc1NC(=O)Cn1c(=O)n(CCCCC(=O)NCc2ccccc2Cl)c(=O)c2ccccc21` it was inactive: -0.747%; in that of `Oc1ccc(C2CNCCc3c2cc(O)c(O)c3Cl)cc1` (stereo not drawn), inactive: 6.45% and inactive: 3.84%.
Consider `CCN(CC)S(=O)(=O)c1ccc(C(=O)NC2CC(=O)N(c3ccc4c(c3)OCCO4)C2)cc1` (stereo not drawn), for which the activation was inactive: -5.88%.
